# Assay results as given in the supplement of paper PMC8728848.
# Some of the results follow.
# B1: Di AAL2 (Agrocybe aegerita) (protein)
# chain: MTSNVITQDLPIPVASRGFADIVGFGLDGVVIGRNAVNLQPFLAVKNFAQNAGGWLTTKHVRLIADTTGTGKGDIVGFGNAGVYVSVNNGKNTFADPPKMVIANFGYDAGGWRVEKHLRYLADIRKIGRADIIGFGEKGVLVSRNNGGLNFGPATLVLKDFGYDAGGWRLDRHLRFLADVTGNGHLDIVGFGDKHVFISRNNGDGTFAPAKSVIDNFCIDAGGWKIGDHPRFVADLTGDGTADIIGCGKAGCWVALNNGGGVFGQVKLVINDFGTDKGWQAAKHPRFIADLTGNGRGDVVGFGNAGVYVALNNGDGTFQSAKLVLKDFGVQQGWTVSKHRRFVVDLTGDGCADIIGFGEKETLVSYNDGKGNFGPVKALTNDFSFSGGKWAPETTVCWMANLDSSRHPAPAPMTSNVITQDLPIPVASRGFADIVGFGLDGVVIGRNAVNLQPFLAVKNFAQNAGGWLTTKHVRLIADTTGTGKGDIVGFGNAGVYVSVNNGKNTFADPPKMVIANFGYDAGGWRVEKHLRYLADIRKIGRADIIGFGEKGVLVSRNNGGLNFGPATLVLKDFGYDAGGWRLDRHLRFLADVTGNGHLDIVGFGDKHVFISRNNGDGTFAPAKSVIDNFCIDAGGWKIGDHPRFVADLTGDGTADIIGCGKAGCWVALNNGGGVFGQVKLVINDFGTDKGWQAAKHPRFIADLTGNGRGDVVGFGNAGVYVALNNGDGTFQSAKLVLKDFGVQQGWTVSKHRRFVVDLTGDGCADIIGFGEKETLVSYNDGKGNFGPVKALTNDFSFSGGKWAPETTVCWMANLDSSRH
# Experiments:
# Assay in all cases: glycan array binding signal (z-score within array); higher = stronger binding
# Settings in all cases: glycan notation: IUPAC condensed, linker removed
# [1] = target: GlcNAc(a1-6)Gal(b1-4)GlcNAc
# Method in brief: (§1)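 The Consortium for Functional Glycomics database supplied 3228 glycan arrays, of which those lacking an available protein sequence were dropped. The binding signal, a within-array Z-score, was averaged across arrays of the same protein sequence and across linkers. Negative scores can be read as non-binding.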
# [2] = target: GlcNAc(b1-2)Gal(b1-3)GalNAc
# Method in brief: as §1
# [3] = target: GlcNAc(b1-2)Man(a1-3)[GlcNAc(b1-2)Man(a1-6)]Man(b1-4)GlcNAc(b1-4)GlcNAc
# Method in brief: as §1
# [4] = target: GlcNAc(b1-2)Man(a1-3)[GlcNAc(b1-2)Man(a1-6)]Man(b1-4)GlcNAc(b1-4)[Fuc(a1-6)]GlcNAc
# Method in brief: as §1
# [5] = target: GlcNAc(b1-2)Man(a1-3)[GlcNAc(b1-4)][GlcNAc(b1-2)Man(a1-6)]Man(b1-4)GlcNAc(b1-4)GlcNAc
# Method in brief: as §1
# [6] = target: GlcNAc(b1-2)Man(a1-3)[GlcNAc(b1-4)][GlcNAc(b1-2)Man(a1-6)]Man(b1-4)GlcNAc(b1-4)[Fuc(a1-6)]GlcNAc
# Method in brief: as §1
# [7] = target: GlcNAc(b1-2)[GlcNAc(b1-4)]Man(a1-3)[GlcNAc(b1-2)Man(a1-6)]Man(b1-4)GlcNAc(b1-4)GlcNAc
# Method in brief: as §1
# [8] = target: GlcNAc(b1-2)[GlcNAc(b1-4)]Man(a1-3)[GlcNAc(b1-4)][GlcNAc(b1-2)Man(a1-6)]Man(b1-4)GlcNAc(b1-4)GlcNAc
# Method in brief: as §1
# [9] = target: GlcNAc(b1-2)[GlcNAc(b1-4)]Man(a1-3)[GlcNAc(b1-4)][GlcNAc(b1-2)[GlcNAc(b1-6)]Man(a1-6)]Man(b1-4)GlcNAc(b1-4)GlcNAc
# Method in brief: as §1
# [10] = target: GlcNAc(b1-2)[GlcNAc(b1-4)]Man(a1-3)[GlcNAc(b1-4)][GlcNAc(b1-2)[GlcNAc(b1-6)]Man(a1-6)]Man(b1-4)GlcNAc(b1-4)[Fuc(a1-6)]GlcNAc
# Method in brief: as §1
# [11] = target: GlcNAc(b1-2)[GlcNAc(b1-6)]Man(a1-6)[GlcNAc(b1-2)Man(a1-3)]Man(b1-4)GlcNAc(b1-4)GlcNAc
# Method in brief: as §1
# [12] = target: GlcNAc(b1-2)[GlcNAc(b1-6)]Man(a1-6)[GlcNAc(b1-2)Man(a1-3)]Man(b1-4)GlcNAc(b1-4)[Fuc(a1-6)]GlcNAc
# Method in brief: as §1
# [13] = target: GlcNAc(b1-2)[GlcNAc(b1-6)]Man(a1-6)[GlcNAc(b1-4)][GlcNAc(b1-2)Man(a1-3)]Man(b1-4)GlcNAc(b1-4)GlcNAc
# Method in brief: as §1
# GlcNAc(b1-3)Fuc = target: GlcNAc(b1-3)Fuc
# Method in brief: as §1
# GlcNAc(b1-3)Gal = target: GlcNAc(b1-3)Gal
# Method in brief: as §1
# [14] = target: GlcNAc(b1-3)Gal(b1-3)GalNAc
# Method in brief: as §1
# GlcNAc(b1-3)Gal(b1-4)Glc = target: GlcNAc(b1-3)Gal(b1-4)Glc
# Method in brief: as §1
# [15] = target: GlcNAc(b1-3)Gal(b1-4)GlcNAc
# Method in brief: as §1
# [16] = target: GlcNAc(b1-3)Gal(b1-4)GlcNAc(b1-2)Man(a1-3)[GlcNAc(b1-3)Gal(b1-4)GlcNAc(b1-2)Man(a1-6)]Man(b1-4)GlcNAc(b1-4)GlcNAc
# Method in brief: as §1
# [17] = target: GlcNAc(b1-3)Gal(b1-4)GlcNAc(b1-2)Man(a1-3)[GlcNAc(b1-3)Gal(b1-4)GlcNAc(b1-2)Man(a1-6)]Man(b1-4)GlcNAc(b1-4)[Fuc(a1-6)]GlcNAc
# Method in brief: as §1
# [18] = target: GlcNAc(b1-3)Gal(b1-4)GlcNAc(b1-2)[GlcNAc(b1-3)Gal(b1-4)GlcNAc(b1-6)]Man(a1-6)[GlcNAc(b1-3)Gal(b1-4)GlcNAc(b1-2)Man(a1-3)]Man(b1-4)GlcNAc(b1-4)GlcNAc
# Method in brief: as §1
# [19] = target: GlcNAc(b1-3)Gal(b1-4)GlcNAc(b1-3)Gal(b1-4)GlcNAc
# Method in brief: as §1
# [20] = target: GlcNAc(b1-3)Gal(b1-4)GlcNAc(b1-3)Gal(b1-4)GlcNAc(b1-2)Man(a1-3)[GlcNAc(b1-3)Gal(b1-4)GlcNAc(b1-3)Gal(b1-4)GlcNAc(b1-2)Man(a1-6)]Man(b1-4)GlcNAc(b1-4)GlcNAc
# Method in brief: as §1
# [21] = target: GlcNAc(b1-3)Gal(b1-4)GlcNAc(b1-3)Gal(b1-4)GlcNAc(b1-2)Man(a1-3)[GlcNAc(b1-3)Gal(b1-4)GlcNAc(b1-3)Gal(b1-4)GlcNAc(b1-2)Man(a1-6)]Man(b1-4)GlcNAc(b1-4)[Fuc(a1-6)]GlcNAc
# Method in brief: as §1
# [22] = target: GlcNAc(b1-3)Gal(b1-4)GlcNAc(b1-3)Gal(b1-4)GlcNAc(b1-2)[GlcNAc(b1-3)Gal(b1-4)GlcNAc(b1-3)Gal(b1-4)GlcNAc(b1-6)]Man(a1-6)[GlcNAc(b1-3)Gal(b1-4)GlcNAc(b1-3)Gal(b1-4)GlcNAc(b1-2)Man(a1-3)]Man(b1-4)GlcNAc(b1-4)[Fuc(a1-6)]GlcNAc
# Method in brief: as §1
# [23] = target: GlcNAc(b1-3)Gal(b1-4)GlcNAc(b1-3)Gal(b1-4)GlcNAc(b1-3)Gal(b1-4)GlcNAc(b1-2)Man(a1-3)[GlcNAc(b1-3)Gal(b1-4)GlcNAc(b1-3)Gal(b1-4)GlcNAc(b1-3)Gal(b1-4)GlcNAc(b1-2)Man(a1-6)]Man(b1-4)GlcNAc(b1-4)GlcNAc
# Method in brief: as §1
# [24] = target: GlcNAc(b1-3)Gal(b1-4)GlcNAc(b1-3)Gal(b1-4)GlcNAc(b1-3)Gal(b1-4)GlcNAc(b1-2)Man(a1-3)[GlcNAc(b1-3)Gal(b1-4)GlcNAc(b1-3)Gal(b1-4)GlcNAc(b1-3)Gal(b1-4)GlcNAc(b1-2)Man(a1-6)]Man(b1-4)GlcNAc(b1-4)[Fuc(a1-6)]GlcNAc
# Method in brief: as §1
# [25] = target: GlcNAc(b1-3)Gal(b1-4)GlcNAc(b1-3)Gal(b1-4)GlcNAc(b1-3)Gal(b1-4)GlcNAc(b1-2)[GlcNAc(b1-3)Gal(b1-4)GlcNAc(b1-3)Gal(b1-4)GlcNAc(b1-3)Gal(b1-4)GlcNAc(b1-6)]Man(a1-6)[GlcNAc(b1-3)Gal(b1-4)GlcNAc(b1-3)Gal(b1-4)GlcNAc(b1-3)Gal(b1-4)GlcNAc(b1-2)Man(a1-3)]Man(b1-4)GlcNAc(b1-4)[Fuc(a1-6)]GlcNAc
# Method in brief: as §1
# [26] = target: GlcNAc(b1-3)Gal(b1-4)GlcNAc(b1-3)Gal(b1-4)GlcNAc(b1-3)Gal(b1-4)GlcNAc(b1-3)Gal(b1-4)GlcNAc(b1-2)Man(a1-3)[GlcNAc(b1-3)Gal(b1-4)GlcNAc(b1-3)Gal(b1-4)GlcNAc(b1-3)Gal(b1-4)GlcNAc(b1-3)Gal(b1-4)GlcNAc(b1-2)Man(a1-6)]Man(b1-4)GlcNAc(b1-4)GlcNAc
# Method in brief: as §1
# [27] = target: GlcNAc(b1-3)Gal(b1-4)GlcNAc(b1-3)Gal(b1-4)GlcNAc(b1-3)Gal(b1-4)GlcNAc(b1-3)Gal(b1-4)GlcNAc(b1-2)Man(a1-3)[GlcNAc(b1-3)Gal(b1-4)GlcNAc(b1-3)Gal(b1-4)GlcNAc(b1-3)Gal(b1-4)GlcNAc(b1-3)Gal(b1-4)GlcNAc(b1-2)Man(a1-6)]Man(b1-4)GlcNAc(b1-4)[Fuc(a1-6)]GlcNAc
# Method in brief: as §1
binder,measurement,setting,value
B1,glycan array binding signal (z-score),[1],0.953
same,glycan array binding signal (z-score),[2],-0.219
same,glycan array binding signal (z-score),[3],1.51
same,glycan array binding signal (z-score),[4],-0.266
same,glycan array binding signal (z-score),[5],-0.275
same,glycan array binding signal (z-score),[6],-0.212
same,glycan array binding signal (z-score),[7],0.327
same,glycan array binding signal (z-score),[8],-0.21
same,glycan array binding signal (z-score),[9],-0.27
same,glycan array binding signal (z-score),[10],-0.291
same,glycan array binding signal (z-score),[11],0.527
same,glycan array binding signal (z-score),[12],1.38
same,glycan array binding signal (z-score),[13],-0.312
same,glycan array binding signal (z-score),GlcNAc(b1-3)Fuc,0.24
same,glycan array binding signal (z-score),GlcNAc(b1-3)Gal,2.83
same,glycan array binding signal (z-score),[14],1.75
same,glycan array binding signal (z-score),GlcNAc(b1-3)Gal(b1-4)Glc,1.86
same,glycan array binding signal (z-score),[15],2.27
same,glycan array binding signal (z-score),[16],3.25
same,glycan array binding signal (z-score),[17],3.42
same,glycan array binding signal (z-score),[18],5.83
same,glycan array binding signal (z-score),[19],2.13
same,glycan array binding signal (z-score),[20],3.47
same,glycan array binding signal (z-score),[21],3.72
same,glycan array binding signal (z-score),[22],5.12
same,glycan array binding signal (z-score),[23],5.42
same,glycan array binding signal (z-score),[24],4.23
same,glycan array binding signal (z-score),[25],5.39
same,glycan array binding signal (z-score),[26],5.42
same,glycan array binding signal (z-score),[27],5.09
